According to PubChem BioAssay AID485297 (National Center for Advancing Translational Sciences (NCATS), 2010):
About 9,100 (2.8%) of roughly 320,000 compounds were called active. The inconclusive results got no clear call from the source; some entries with a clear call stand among them for comparison. The call rests on the fitted dose curve; in most records, active means well fitted activation curve with a large enough effect; inconclusive means small, poorly fitted or top-dose-only effect; inactive means no such curve, though single readings can be large or run the other way. Where the call is inconclusive, the potency comes from a doubtful curve fit.

Assay: qHTS Assay for Rab9 Promoter Activators; further: nearly all actives have a fitted effect of over 60% in size; on activation, negative = inhibition: % of control where 0% means no effect
Conditions: Huh7 Rab9 promoter-luciferase reporter, luminescence, 24 h; series mostly up to 9.22 µM; activation, negative = inhibition: at the top concentration
Procedure, shortened: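 Huh7 cells stably carrying a Rab9 promoter-luciferase reporter, 1500 cells per well in OP-MEM I with 10% FBS, treated with compound 24 hours at 37C. Luciferase activity read by luminescence after 10 minutes with Amplite reagent.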
Potency means the concentration at half of the fitted maximal effect; tags describe the fitted curve by direction and shape.

Potency, inconclusive:
CC(/C=N/NC(=O)Cc1cccs1)=C\c1ccco1 1.26 µM [activator, partial curve]
CCCc1cc(C(=O)NNC(=S)NC2CCCCC2)cs1 3.16 µM [activator, single point]
Cc1cc(C)cc(N(CC(=O)Nc2ccc(-c3nc4ccc(C)cc4s3)cc2)S(C)(=O)=O)c1 2.24 µM [activator, partial curve]
O=C(Nc1cccc(S(=O)(=O)N2CCCCC2)c1)C1=NN(c2ccccc2)C(=O)CC1 3.55 µM [activator, single point]
Cc1ccc(-c2nnc(NC(=O)c3ccco3)o2)c(C)c1 2.24 µM [activator, partial curve]
CCOC(=O)c1sc(=NC(=O)c2ccccc2Br)n(C)c1C 5.62 µM [activator, single point]
CC(=O)c1ccc(NC(=O)Nc2cccc3ccccc23)cc1 2 µM [activator, partial curve]
COc1ccc(C(=O)Nc2nncs2)c(OC)c1 2.82 µM [activator, partial curve]
C=CCN=C1S/C(=C\c2ccc(N(C)C)cc2)C(=O)N1CC=C 5.62 µM [activator, single point]
O=C(CCSc1ccc(Cl)cc1)N1CCN(c2ccc(O)cc2)CC1 5.62 µM [activator, single point]
CC(C)c1ccc(C(=O)CSc2ncn[nH]2)cc1 2.82 µM [activator, partial curve]
O=C(CNC(=O)c1ccco1)Nc1ccc(Br)cc1 3.98 µM [activator, single point]
O=C(CN1C(=O)c2ccccc2S1(=O)=O)c1ccc(F)c(F)c1 0.631 µM [activator, partial curve]
Cc1ccc(CONC(=O)c2ccc(Cl)cc2)cc1 3.16 µM [activator, single point]
O=C(NNC(=O)c1cccc2ccccc12)c1ccc2c(c1)OCO2 6.31 µM [activator, single point]
COc1ccc(OCCN2C(=O)c3ccccc3C2=O)cc1 3.55 µM [activator, single point]
CC(C)Cc1cc(C(=O)Nc2cc(Br)ccc2O)no1 3.16 µM [activator, single point]
O=C(N/N=C/c1c(Cl)[nH]c2ccccc12)c1ccc2c(c1)OCCO2 5.62 µM [activator, single point]
Cc1ccc(C)c(-c2nc3cc(N)ccc3o2)c1 1.12 µM [activator, partial curve]
O=C(COc1ccccc1F)N/N=C1\CCCc2ccccc21 3.55 µM [activator, single point]
CCCC(=O)N1CCN(c2nc3ccc(CC)cc3s2)CC1 3.16 µM [activator, partial curve]
O=C(O)c1ccc(COc2ccc3c(c2)CCC3)cc1 0.398 µM [activator, partial curve]
COC(=O)c1ccc(OCCOc2ccccc2)cc1 6.31 µM [activator, single point]
Cn1c(N/N=C/c2c[nH]c3ccccc23)nc2ccccc21 5.62 µM [activator, single point]
COC(=O)c1ccc(/C=N\N2CCN(c3ccccc3)CC2)cc1 2.82 µM [activator, partial curve]
CC(C)CNS(=O)(=O)c1ccc(C(=O)Nc2ccc3c(c2)OCCO3)cc1 6.31 µM [activator, partial curve]
CCOC(=O)c1cnn(-c2ccccc2)c1NC(=O)c1ccc(C)cc1 1.12 µM [activator, single point]
COc1cc(/C=N/Nc2ccc(C(=O)O)cc2)ccc1O 0.398 µM [activator, full curve]
O=C(NCc1cccnc1)c1cc(-c2cccs2)on1 3.16 µM [activator, single point]
Cn1c(/C=C/c2ccccc2[N+](=O)[O-])nc2ccccc2c1=O 3.98 µM [activator, partial curve]
Cc1ccc(NC(=S)N2CCCCCC2)cc1 3.16 µM [activator, partial curve]
COc1ccc(O)c(-c2cc(-c3cccc(Br)c3)n[nH]2)c1 1.26 µM [activator, single point]
CN1c2ccccc2Oc2nnc(N3CCN(Cc4ccccc4)CC3)cc21 1.58 µM [activator, partial curve]
CCCN1C(=O)S/C(=C/c2ccc(N3CCOCC3)o2)C1=O 3.16 µM [activator, partial curve]
CCCCC(=O)Nc1sc2c(c1C(N)=O)CCC2 6.31 µM [activator, single point]
COc1ccc(Cc2nc3ccc(C(=O)NCCCSC)cc3o2)cc1OC 2.24 µM [activator, partial curve]
CCOc1ncccc1C(=O)Nc1ccc2c(C)cc(=O)oc2c1 0.562 µM [activator, full curve, poor fit]
c1ccc(CSc2nnc(SCc3ccccn3)s2)nc1 1.12 µM [activator, full curve]
Cc1cc(C)cc(NC(=S)Nc2ccccn2)c1 2.51 µM [activator, partial curve]
COC(=O)c1cccc(NC(=O)C2COc3ccccc3O2)c1 (stereo not drawn) 2.82 µM [activator, partial curve]
CCOC(=O)c1c(C)[nH]c(N=Nc2ccc(OC)cc2)c1C 1 µM [activator, partial curve, poor fit]
Cc1ccc(-n2nc3ccc(NC(=O)c4ccco4)cc3n2)cc1 2.51 µM [activator, partial curve]
CCOC(=O)c1ccc(NC(=O)C2CCCN(c3cnccn3)C2)cc1 (stereo not drawn) 3.55 µM [activator, single point]
O=C(Nc1ccc(Cl)cc1)Nc1cccc2nsnc12 5.62 µM [activator, single point]
Cc1nc2c(cc(Oc3ccc(S(=O)(=O)N4CCOCC4)cn3)c3ccsc32)s1 3.98 µM [activator, single point]
C/C(=N\NC(=O)c1ccccc1)c1ccc(NC(=O)c2cccs2)cc1 3.16 µM [activator, single point]

Potency, active:
CCCNC(=O)c1cc(-c2ccc(OC)cc2)on1 2.82 µM
Clc1ccccc1OCc1nc(-c2ccncc2)no1 2 µM
CC(C)NC(=O)c1cc(-c2ccc3c(c2)OCO3)on1 0.631 µM
O=C(Nc1nc2ccccc2[nH]1)c1cc2ccccc2o1 1.12 µM
Cc1csc2ncc(C(=O)Nc3ccccc3Cl)c(=O)n12 3.16 µM
c1ccc(-n2ncc3c(NC4CCCCCC4)ncnc32)cc1 1.78 µM
COc1cccc2sc(Nc3nnc(-c4cccs4)o3)nc12 1 µM
c1ccc(-c2csc(NC3CCCCC3)n2)cc1 1 µM
Cc1cc(NC(=O)c2ccc3nc(C)sc3c2)no1 1.78 µM
COc1ccc(NC(=O)N2CCc3ccccc32)cc1 0.398 µM
Cc1cc(NC(=O)C2CC2)ncc1NC(=O)c1ccccn1 2.51 µM
Fc1cccc2sc(Nc3nnc(-c4ccccc4)o3)nc12 3.16 µM
COc1ccc(NC(=O)Nc2nnc(-c3ccco3)s2)cc1 1.26 µM

activation, negative = inhibition, inactive:
CCNc1nc2ccccc2[nH]1 5.45%
O=C(NCc1csc(-c2cccs2)n1)c1ccccc1 23.4%
CC(=O)N1CCN(S(=O)(=O)c2cccc(C(=O)N(Cc3ccccc3)c3cccc(C)c3)c2)CC1 -6.32%
Cc1cc(C)c(NC(=O)CNC(=O)CSc2nnc(N)s2)c(C)c1 -3.18%
O=C(COc1ccccc1-c1ccccc1)c1ccccc1 4.94%
CC(=O)c1c(C)[nH]c(C(=O)OCC(=O)NCCc2ccc(F)cc2)c1C 3.46%
CC1Sc2ccc(S(=O)(=O)CCC(=O)N3CCN(c4cccc(Cl)c4)CC3)cc2NC1=O (stereo not drawn) -13.1%
O=C(CSc1nnc(SCc2ccc(Cl)cc2)s1)N1CCOCC1 0.121%
CC(=O)Nc1cccc(NC(=O)Nc2ccc(F)cc2F)c1 1.32%
Cc1ccc(S(=O)(=O)C2(C(=O)Nc3ccc(F)cc3)CC2)cc1 -1.5%
CCN(CC)C(=O)c1cc(Cl)ccn1 0.498%
Cc1ccc([N+](=O)[O-])cc1NC(=O)c1c(-c2ccccc2)noc1C -2.35%
Cc1ccc(OCC(=O)Nc2nnc(S(=O)(=O)N3CCCCCC3)s2)cc1C 8.34%
Cc1ccc(-n2nnnc2SCC(=O)Nc2ccc3c(c2)OCCO3)cc1C -0.884%
Cc1nc(CNC(=O)CC2C(=O)NCCN2Cc2ccc(F)cc2)cs1 (stereo not drawn) -1.42%
COc1ccc(C)cc1NC(=O)n1ncc2c(C)cccc21 28.2%
O=[N+]([O-])c1ccc2ncnc(N3CCN(Cc4ccc5c(c4)OCO5)CC3)c2c1 -1.39%
Cc1[nH]n2cnnc2c(=O)c1Br 0.167%
CCc1cc(=O)oc2cc(OC(C)C(=O)NCC3CCC(C(=O)O)CC3)c(Cl)cc12 (stereo not drawn) -2.08%
